Experimental data taken from publication PMC6570896.
These are yes or no findings as the source states them, for the method shown. In cells and extracts the contact can be indirect. Some entries that bind do so weakly or less than the wild type. For some of these results: Sequences can lack the tags named with a protein.

Sequences of proteins named here, by UniProt entry; tags and fusion partners are left off.
UniProt Q93ZX1: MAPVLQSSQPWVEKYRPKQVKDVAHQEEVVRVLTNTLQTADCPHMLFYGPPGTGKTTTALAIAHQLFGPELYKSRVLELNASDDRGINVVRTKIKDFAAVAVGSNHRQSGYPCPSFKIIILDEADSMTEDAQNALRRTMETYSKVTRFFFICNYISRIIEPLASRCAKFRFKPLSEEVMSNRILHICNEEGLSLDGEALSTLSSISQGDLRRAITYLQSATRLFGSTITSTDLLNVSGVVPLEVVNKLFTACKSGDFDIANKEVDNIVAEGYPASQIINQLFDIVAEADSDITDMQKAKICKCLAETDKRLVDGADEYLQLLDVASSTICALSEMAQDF
UniProt Q9FXM3: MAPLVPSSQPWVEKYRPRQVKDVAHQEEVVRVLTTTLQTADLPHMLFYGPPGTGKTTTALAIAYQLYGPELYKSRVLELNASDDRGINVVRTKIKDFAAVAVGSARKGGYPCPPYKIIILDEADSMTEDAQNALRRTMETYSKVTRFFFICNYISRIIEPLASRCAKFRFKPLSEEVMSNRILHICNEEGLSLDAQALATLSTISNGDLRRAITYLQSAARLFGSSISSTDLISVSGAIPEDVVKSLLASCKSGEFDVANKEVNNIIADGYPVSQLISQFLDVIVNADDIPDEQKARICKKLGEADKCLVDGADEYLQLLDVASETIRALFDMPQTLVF

T1: AtRFC2-YFP^N (Arabidopsis thaliana) (UniProt Q9CAM7)
T1 sequence: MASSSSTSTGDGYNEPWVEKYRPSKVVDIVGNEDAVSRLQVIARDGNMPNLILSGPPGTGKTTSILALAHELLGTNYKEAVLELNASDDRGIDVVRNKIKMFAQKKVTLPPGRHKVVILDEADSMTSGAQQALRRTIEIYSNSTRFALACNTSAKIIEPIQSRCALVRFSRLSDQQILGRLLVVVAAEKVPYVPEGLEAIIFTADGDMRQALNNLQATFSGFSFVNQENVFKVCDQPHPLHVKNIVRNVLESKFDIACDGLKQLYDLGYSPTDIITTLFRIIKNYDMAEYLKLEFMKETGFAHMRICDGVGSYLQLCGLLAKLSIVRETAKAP

T2: OsRFC1-YFP^N (rice (Oryza sativa)) (UniProt Q2R2B4)
T2 sequence: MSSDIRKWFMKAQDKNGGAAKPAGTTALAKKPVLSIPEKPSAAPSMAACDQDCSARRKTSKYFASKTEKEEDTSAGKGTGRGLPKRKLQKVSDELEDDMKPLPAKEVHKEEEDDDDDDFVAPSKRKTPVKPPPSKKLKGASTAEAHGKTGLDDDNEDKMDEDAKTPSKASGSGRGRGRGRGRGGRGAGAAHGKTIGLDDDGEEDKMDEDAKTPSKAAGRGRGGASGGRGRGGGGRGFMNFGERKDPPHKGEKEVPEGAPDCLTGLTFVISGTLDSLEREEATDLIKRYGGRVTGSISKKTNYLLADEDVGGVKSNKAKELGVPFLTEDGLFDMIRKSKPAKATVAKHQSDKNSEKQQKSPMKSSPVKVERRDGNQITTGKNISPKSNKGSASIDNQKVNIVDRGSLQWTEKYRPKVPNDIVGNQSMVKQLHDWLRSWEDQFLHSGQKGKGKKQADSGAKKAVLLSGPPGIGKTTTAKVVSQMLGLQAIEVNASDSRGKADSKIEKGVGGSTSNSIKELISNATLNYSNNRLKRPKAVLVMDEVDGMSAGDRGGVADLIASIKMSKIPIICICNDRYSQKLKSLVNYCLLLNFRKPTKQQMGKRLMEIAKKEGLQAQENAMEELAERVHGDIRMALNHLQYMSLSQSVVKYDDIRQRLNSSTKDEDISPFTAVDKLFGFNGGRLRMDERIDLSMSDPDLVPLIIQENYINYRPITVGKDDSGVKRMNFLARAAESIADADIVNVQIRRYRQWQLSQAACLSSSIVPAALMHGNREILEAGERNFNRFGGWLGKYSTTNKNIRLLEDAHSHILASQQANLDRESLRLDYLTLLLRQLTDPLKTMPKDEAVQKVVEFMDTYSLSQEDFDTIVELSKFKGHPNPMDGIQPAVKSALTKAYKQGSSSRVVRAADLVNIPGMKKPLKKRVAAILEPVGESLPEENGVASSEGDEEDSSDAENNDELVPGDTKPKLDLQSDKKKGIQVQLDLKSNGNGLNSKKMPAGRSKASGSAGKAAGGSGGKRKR

T3: OsRFC3-YFP^N (rice (Oryza sativa)) (UniProt Q6YZ54)
T3 sequence: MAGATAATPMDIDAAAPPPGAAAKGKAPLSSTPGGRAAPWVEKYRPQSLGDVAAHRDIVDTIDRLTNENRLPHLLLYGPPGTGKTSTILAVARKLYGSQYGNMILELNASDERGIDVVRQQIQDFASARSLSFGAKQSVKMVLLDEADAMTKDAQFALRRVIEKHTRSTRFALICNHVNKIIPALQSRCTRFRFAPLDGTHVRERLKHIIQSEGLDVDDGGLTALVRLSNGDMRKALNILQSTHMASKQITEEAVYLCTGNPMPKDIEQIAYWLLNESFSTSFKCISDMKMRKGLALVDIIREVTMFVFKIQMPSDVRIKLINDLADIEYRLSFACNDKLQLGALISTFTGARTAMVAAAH

T4: OsRFC4-YFP^N (rice (Oryza sativa)) (UniProt Q7XRX1)
T4 sequence: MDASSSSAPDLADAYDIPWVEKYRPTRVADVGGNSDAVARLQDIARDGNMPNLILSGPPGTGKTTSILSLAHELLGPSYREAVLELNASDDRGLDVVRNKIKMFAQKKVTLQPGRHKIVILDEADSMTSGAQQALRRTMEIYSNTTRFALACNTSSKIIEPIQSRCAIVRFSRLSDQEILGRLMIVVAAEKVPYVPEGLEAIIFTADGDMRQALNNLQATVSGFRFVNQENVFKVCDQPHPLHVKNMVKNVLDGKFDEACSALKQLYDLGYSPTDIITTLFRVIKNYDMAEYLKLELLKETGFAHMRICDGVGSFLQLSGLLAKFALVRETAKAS

T5: OsRFC5-YFP^N (rice (Oryza sativa)) (UniProt Q852K3)
T5 sequence: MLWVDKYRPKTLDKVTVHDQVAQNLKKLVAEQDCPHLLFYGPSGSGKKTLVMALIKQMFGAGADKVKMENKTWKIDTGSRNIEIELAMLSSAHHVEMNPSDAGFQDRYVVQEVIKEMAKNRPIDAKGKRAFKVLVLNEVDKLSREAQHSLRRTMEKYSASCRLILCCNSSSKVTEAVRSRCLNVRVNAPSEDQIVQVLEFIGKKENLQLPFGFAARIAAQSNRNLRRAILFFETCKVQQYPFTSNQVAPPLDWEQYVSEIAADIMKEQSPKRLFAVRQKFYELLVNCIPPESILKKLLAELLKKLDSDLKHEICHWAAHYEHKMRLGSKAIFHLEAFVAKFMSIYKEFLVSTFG

B1: AtPCNA1 Δ244–263 (domain or fragment, UniProt Q9M7Q7 1-243)
chain: MLELRLVQGSLLKKVLESIKDLVNDANFDCSSTGFSLQAMDSSHVALVSLLLRSEGFEHYRCDRNLSMGMNLGNMSKMLKCAGNDDIITIKADDGGDTVTFMFESPTQDKIADFEMKLMDIDSEHLGIPDAEYHSIVRMPSNEFSRICKDLSSIGDTVVISVTKEGVKFSTAGDIGTANIVLRQNTTVDKPEDAIVIEMKEPVSLSFALRYMNSFTKATPLSDTVTISLSSELPVVVEYKVAE
B2: AtPCNA1 Δ1–120 (domain or fragment, UniProt Q9M7Q7 121-263)
chain: IDSEHLGIPDAEYHSIVRMPSNEFSRICKDLSSIGDTVVISVTKEGVKFSTAGDIGTANIVLRQNTTVDKPEDAIVIEMKEPVSLSFALRYMNSFTKATPLSDTVTISLSSELPVVVEYKVAEMGYIRYYLAPKIEEEEDTNP
B3: AtPCNA2 Δ245–264 (domain or fragment, UniProt Q9ZW35 1-244)
chain: MLELRLVQGSLLKKVLEAVKDLVNDANFDCSTTGFSLQAMDSSHVALVSLLLRSEGFEHYRCDRNLSMGMNLGNMSKMLKCAGNDDIITIKADDGSDTVTFMFESPTQDKIADFEMKLMDIDSEHLGIPDAEYHSIVRMPSGEFSRICKDLSSIGDTVVISVTKEGVKFSTAGDIGTANIVLRQNTTVDKPEDAIVIEMNEPVSLSFALRYMNSFTKATPLSETVTISLSSELPVVVEYKVAEM
B4: AtPCNA1 Δ144–263 (domain or fragment, UniProt Q9M7Q7 1-143)
chain: MLELRLVQGSLLKKVLESIKDLVNDANFDCSSTGFSLQAMDSSHVALVSLLLRSEGFEHYRCDRNLSMGMNLGNMSKMLKCAGNDDIITIKADDGGDTVTFMFESPTQDKIADFEMKLMDIDSEHLGIPDAEYHSIVRMPSNE
B5: OsPCNA Δ1–20-YFP^N (domain or fragment, UniProt P17070 21-263)
chain: ELVTDANFDCSGTGFSLQAMDSSHVALVALLLRSEGFEHYRCDRNLSMGMNLNNMAKMLRCAGNDDIITIKADDGSDTVTFMFESPNQDKIADFEMKLMDIDSEHLGIPDSEYQAIVRMPSSEFSRICKDLSSIGDTVIISVTKEGVKFSTAGDIGTANIVCRQNKTVDKPEDATIIEMQEPVSLTFALRYMNSFTKASPLSEQVTISLSSELPVVVEYKIAEMGYIRFYLAPKIEEDEEMKS
B6: AtPCNA1 Δ128–263-YFP^N (domain or fragment, UniProt Q9M7Q7 1-127)
chain: MLELRLVQGSLLKKVLESIKDLVNDANFDCSSTGFSLQAMDSSHVALVSLLLRSEGFEHYRCDRNLSMGMNLGNMSKMLKCAGNDDIITIKADDGGDTVTFMFESPTQDKIADFEMKLMDIDSEHLG
B7: AtPCNA2 Δ145–264 (domain or fragment, UniProt Q9ZW35 1-144)
chain: MLELRLVQGSLLKKVLEAVKDLVNDANFDCSTTGFSLQAMDSSHVALVSLLLRSEGFEHYRCDRNLSMGMNLGNMSKMLKCAGNDDIITIKADDGSDTVTFMFESPTQDKIADFEMKLMDIDSEHLGIPDAEYHSIVRMPSGEF
B8: OsPCNA Δ64–263 (domain or fragment, UniProt P17070 1-63)
chain: MLELRLVQGSLLKKVLEAIRELVTDANFDCSGTGFSLQAMDSSHVALVALLLRSEGFEHYRCD

Columns and labels:
Test in all cases: split reporter; BiFC: fusions to YFP^N (1-155 aa) and YFP^C (156-239 aa) co-expressed transiently in Nicotiana benthamiana leaf epidermal cells; YFP seen by confocal microscopy
[1] = molecular target: AtPCNA1 Δ244–263 (Arabidopsis thaliana) (UniProt Q9M7Q7)
[2] = molecular target: AtPCNA1-YFP^C (Arabidopsis thaliana) (UniProt Q9M7Q7)
[3] = molecular target: AtPCNA2-YFP^C (Arabidopsis thaliana) (UniProt Q9ZW35)
[4] = molecular target: T1, AtRFC2-YFP^N (Arabidopsis thaliana)
[5] = molecular target: AtRFC4-YFP^N (Arabidopsis thaliana) (UniProt Q93ZX1)
[6] = molecular target: AtPCNA1 Δ1–120 (Arabidopsis thaliana) (UniProt Q9M7Q7)
[7] = molecular target: AtPCNA2 Δ245–264 (Arabidopsis thaliana) (UniProt Q9ZW35)
[8] = molecular target: T2, OsRFC1-YFP^N (rice (Oryza sativa))
[9] = molecular target: OsRFC2-YFP^N (rice (Oryza sativa)) (UniProt Q9FXM3)
[10] = molecular target: T3, OsRFC3-YFP^N (rice (Oryza sativa))
[11] = molecular target: T4, OsRFC4-YFP^N (rice (Oryza sativa))
[12] = molecular target: T5, OsRFC5-YFP^N (rice (Oryza sativa))

| Binder | binding [2] | binding [3] | binding [4] | binding [5] | other results |
| --- | --- | --- | --- | --- | --- |
| B1 | binds | binds | binds | binds | binding [1]: binds |
| B2 | binds | binds | binds | binds | binding [6]: binds |
| B3 | binds | binds | binds | binds | binding [7]: binds |
| B4 |  |  | binds | no binding |  |
| B5 |  |  |  |  | binding [8]: binds; binding [9]: no binding; binding [10]: binds; binding [11]: binds; binding [12]: no binding |
| B6 |  |  | no binding | no binding |  |
| B7 |  |  | no binding | no binding |  |
| B8 |  |  |  |  | binding [8]: no binding; binding [9]: no binding; binding [10]: no binding; binding [11]: no binding; binding [12]: no binding |
